SMILES strings stand for the structures. Screen size: about 150,000 compounds; about 540 (0.36%) showed an effect of 50% or more. This is one part of the list.

In this test the test system is Plasmodium falciparum. Nature of the test: Primary screen in NF54 nanoGlo assay, in single point, at 2uM, 72h; a lower Z score goes with more inhibition. Particulars: timepoint 72 hour. Type of test: functional, Erythrocyte.
In general, % Inhibition refers to the drop in the measured response relative to a control, in per cent. For the molecule `COc1ccc(CNC(=O)Cn2ncc3c(N4CCOCC4)ncnc32)c(OC)c1`, the “% Inhibition” value is reported as -13% and the Z score was found to be 1.42.
Regarding `CC(C)CS(=O)(=O)NCc1nncn1CCc1ccccc1`, the “% Inhibition” value is recorded as -8% and the Z score is reported as 1.24.
Taken in the same sequence, the figures for `O=C(O)C1(C[C@H]2CCCCO2)CCN(c2ncnc3ccsc23)CC1` were -1% and 0.18.
With `CC(=O)Nc1nc2ccc(NC(=O)c3cc(C4CC4)on3)cc2s1`, the “% Inhibition” value was determined as 5% and the Z score is -0.71.
On to `O=C(NCc1nc(-c2ccncc2)no1)NC1CCCCC1`, for which the “% Inhibition” value is -10% and the Z score worked out at 1.56.
Regarding `COc1ccc(C(=O)N(CCN2CCOCC2)CC(=O)N2CCN(c3ccc(-c4cccc(OC)c4)nn3)CC2)cc1`, the “% Inhibition” value was -12% and the Z score turned out to be 1.82.
On to `N#Cc1cnn(-c2ccc(NC(=O)c3cc4c(s3)CCCCCC4)cc2)c1N`, for which the “% Inhibition” value is given as -7% and the Z score was 0.93.
As to `CC(=O)Nc1ccc(S(=O)(=O)N2CCC[C@H]2c2cccs2)cc1`, the “% Inhibition” value is reported as -3% and the Z score amounted to 0.6.
For `COc1ccc(C2(C(=O)N(C)c3nc(C)cs3)CC3(CCC3)C2)cc1`, the “% Inhibition” value worked out at 4% and the Z score is reported as -0.86.
Taken in the same sequence, the figures for `Cc1nc(-c2ccccc2CO)c2c(C)noc2n1` were -8% and 1.36.
As for `Cc1cncc(C)c1NC(=O)[C@H](C)c1cccs1`, the “% Inhibition” value is 19% and the Z score is -2.35.
On to `COc1cc(C)c(-c2ccc(C(=O)N3CCCCCC3)cc2)cn1`, for which the “% Inhibition” value is recorded as -10% and the Z score is 1.56.
`CCOc1ncc(C(=O)N2CCC3(C2)OCCO3)cc1Cl`: the “% Inhibition” value is recorded as -6% and the Z score worked out at 0.56.
Consider `CCCc1nc(-c2c(C)cc(C)nc2NC(=O)C2CCCCC2)no1`, for which the “% Inhibition” value was -1% and the Z score turned out to be 0.07.
For `COc1cc(C)nc(CN2CCOc3ccc(OC)cc32)c1`, the “% Inhibition” value is 0% and the Z score was determined as 0.09.
`O=C1N[C@H]2CCC[C@@H]1CN(C(=O)Nc1cccc(-c3cscn3)c1)C2`: the “% Inhibition” value is -3% and the Z score was 0.68.
Consider `Cc1ccccc1CCC(=O)N1CCC(N2C(=O)CNC2=O)CC1`, for which the “% Inhibition” value is listed as -15% and the Z score is on record as 2.83.
As for `O=C(Cc1ccsc1)N1CCCC[C@H](c2ccccc2)C1`, the “% Inhibition” value is 7% and the Z score is on record as -0.99.
On to `Cn1cnc(C(=O)N2CCC(COc3cc(C4CC4)ncn3)CC2)c1`, for which the “% Inhibition” value is recorded as -10% and the Z score came out at 1.15.
Turning to `Cc1nn(CCC(=O)N2CC(=O)N(c3ccccc3C#N)C[C@@H]2C)c(C)c1C`, the “% Inhibition” value is 8% and the Z score was -1.49.
For the molecule `CCOc1ccc(CCN2CN(Cc3ccccc3)c3nc4ccccc4n3C2)cc1OCC`, the “% Inhibition” value is recorded as -3% and the Z score is given as 0.51.
On to `CC1CCN(C(=O)c2ccc(NCCc3ccccn3)nc2)CC1`, for which the “% Inhibition” value is on record as -10% and the Z score was found to be 1.39.
Taken in the same sequence, the figures for `Cc1ccccc1CN1CCCN(C(=O)C2=NN(C)C(=O)CC2)CC1` were 1% and -0.06.
For `O=C(NCCS(=O)(=O)c1ccccc1F)Nc1ccccc1`, the “% Inhibition” value is listed as -11% and the Z score stood at 1.17.
Turning to `Cc1cnc(NC(=O)CC2CCCC(C)C2)[nH]1` (stereo not drawn), the “% Inhibition” value was -8% and the Z score amounted to 0.92.
As for `CC(C)CN1C[C@H](c2noc(-c3cn(C)cn3)n2)C2(CCOCC2)C1`, the “% Inhibition” value was 4% and the Z score is -0.54.
For `COc1ccc(-c2cn(-c3ccc(C)cc3)c(NC(=O)CN(Cc3ccccc3)C(=O)C(C)C)n2)cc1`, the “% Inhibition” value is reported as 10% and the Z score was -1.21.
Regarding `O=C(CCNc1c(-c2cccc(F)c2)nc2cnccn12)Nc1ccccc1`, the “% Inhibition” value is -11% and the Z score is 1.72.
In the same order, the values of `O[C@H]1C[C@@H]2CN(Cc3ccccc3OC(F)(F)F)C[C@@H]2C[C@@H]1O` are -6% and 0.58.
In the case of `C[C@H](Nn1cnnc1)c1cc(Cl)ccc1O`, the “% Inhibition” value is reported as -11% and the Z score was 1.69.
On to `Cc1noc(C2CCN(C(=O)[C@H]3CCS(=O)(=O)C3)CC2)n1`, for which the “% Inhibition” value is on record as -10% and the Z score was 1.24.
In the same order, the values of `Cc1ccc(CC(=O)N[C@H]2CS(=O)(=O)C2(C)C)cc1Cl` are -4% and 0.82.
As to `CCN(C(=O)CCc1ccco1)c1ccc(NC(=O)CCc2ccco2)c(C(F)(F)F)c1`, the “% Inhibition” value is given as -5% and the Z score is recorded as 0.8.
For the molecule `Cc1cc(C)n(S(=O)(=O)c2cccc3nsnc23)n1`, the “% Inhibition” value is given as -6% and the Z score was 0.82.
Turning to `Cc1ccc2c(c1)nnn2CNc1ccc2ncccc2c1`, the “% Inhibition” value is -8% and the Z score stood at 1.23.
Consider `COc1nc(NCC2(CC(C)C)CCC2)ncc1F`, for which the “% Inhibition” value is on record as -9% and the Z score is on record as 1.41.
Take `COc1cc([C@H](C(=O)Nc2c(C)cccc2C)N(Cc2ccco2)C(=O)c2ccc(-n3cnnn3)cc2)ccc1O`: the “% Inhibition” value is 10% and the Z score is on record as -1.36.
In the same order, the values of `CN(Cc1ccco1)C(=O)c1cn2c(n1)CCCC2` are -5% and 0.79.
Turning to `CCc1cc(C(=O)NC[C@@H]2COc3ccccc3C2)[nH]n1`, the “% Inhibition” value is reported as -7% and the Z score was found to be 1.36.
Consider `O=C(C1CCN(Cn2nc3ccccn3c2=O)CC1)N1CCCC1`, for which the “% Inhibition” value is listed as -10% and the Z score was determined as 1.91.
With `O=C(c1cscn1)N1CC2(C[C@H](N3CCOCC3)CO2)C1`, the “% Inhibition” value is listed as -14% and the Z score was 2.23.
For the molecule `Cc1n[nH]c(C)c1NC(=O)CN1CCN(c2ccccc2)[C@@H](C)C1`, the “% Inhibition” value amounted to 12% and the Z score is given as -1.6.
Take `Cc1cc(F)ccc1NC(=O)c1cc2c(=O)n(CC(C)C)ccc2n1C`: the “% Inhibition” value is -16% and the Z score is on record as 1.56.
As to `COCc1nc([C@H]2CCOC(C)(C)C2)n(-c2ccc(F)c(F)c2)n1`, the “% Inhibition” value is given as -1% and the Z score came to 0.21.
On to `Cc1cc(CN(C)C(=O)c2cc(C(C)C)oc2C)no1`, for which the “% Inhibition” value is 1% and the Z score is -0.11.
For `CC[C@H](C)N(Cc1csc(COc2ccccc2C)n1)C(=O)c1cccc(Br)c1`, the “% Inhibition” value is recorded as 6% and the Z score is -0.52.
On to `CCc1nc2ccccc2c(N2CCC3OCC(=O)NC3C2)c1C` (stereo not drawn), for which the “% Inhibition” value is -11% and the Z score stood at 1.03.
For the molecule `COc1ccc(Cl)cc1NS(=O)(=O)c1cc(-c2noc(C(=O)N3CCOCC3)n2)cs1`, the “% Inhibition” value was -6% and the Z score is 0.63.
Taken in the same sequence, the figures for `CCc1cccc2c([C@H](CC(=O)NCCOC)CC(C)C)c[nH]c12` were -1% and 0.11.
With `Nc1ccc(Oc2ccc(-c3cc(F)cc4cccnc34)cc2)nc1`, the “% Inhibition” value is listed as -6% and the Z score is 1.07.
Taken in the same sequence, the figures for `CC1CCCCC1NC(=O)C1CCC(CNS(=O)(=O)c2ccc3c(c2)C(C)(C)C(=O)N3C)CC1` (stereo not drawn) were -17% and 1.65.
As to `O=C(C1CCS(=O)(=O)CC1)N(CC#Cc1ccccc1)C1CCCC1`, the “% Inhibition” value is -16% and the Z score was found to be 1.57.
In the same order, the values of `C[C@@H]1Oc2ccc(NC(=O)COc3ccc(F)cc3)cc2NC1=O` are -2% and 0.37.
Turning to `Cc1nocc1NC(=O)N[C@@H]1c2ccccc2CC[C@@H]1O`, the “% Inhibition” value was -2% and the Z score is reported as 0.39.
For `Cc1ocnc1CNC(=O)C1CCCCCC1`, the “% Inhibition” value is -21% and the Z score worked out at 2.96.
For `Cc1ccc(OCc2ccccc2)c(NC(=O)N2CC[C@H](CO)C2)c1`, the “% Inhibition” value is 0% and the Z score is given as -0.03.
Consider `Cc1ccc(-c2coc(-c3ccc(NC(=O)COc4ccccc4C)cc3)n2)c(C)c1`, for which the “% Inhibition” value is given as -2% and the Z score is recorded as 0.43.
For `CCc1ccc(S(=O)(=O)C2CS(=O)(=O)CC2NC2CCCCCC2)cc1` (stereo not drawn), the “% Inhibition” value is recorded as -6% and the Z score is given as 0.71.
Regarding `COc1cccc(CNC(=O)Cn2nc3c4cc(F)ccc4ncn3c2=O)c1`, the “% Inhibition” value is reported as -2% and the Z score came out at 0.29.
Take `CC(C)NC(=O)N1CC[C@@](C)(O)[C@@H](NC(=O)CC(C)(C)C)[C@@H]1c1cccs1`: the “% Inhibition” value was -15% and the Z score amounted to 2.36.
Take `Cc1ccc(C)c(-n2nc(-c3ccccc3)nc2Cn2cc(C)c(=O)[nH]c2=O)c1`: the “% Inhibition” value is listed as 5% and the Z score is -0.65.
Taken in the same sequence, the figures for `Cc1cccc(NC(=O)[C@@H](C#N)C(=O)C2CC2)c1` were -8% and 1.1.
Regarding `COc1ccc(C(=O)N2CCC3(CC[C@@H]3N3CCOCC3)CC2)cn1`, the “% Inhibition” value is given as -6% and the Z score is recorded as 0.72.
Turning to `CCCN(CC#N)S(=O)(=O)c1cc(C)ccc1Br`, the “% Inhibition” value is given as -11% and the Z score is listed as 1.75.
Take `CC1CN(S(=O)(=O)CC(C)(C)C)CC2(CCOC2)O1` (stereo not drawn): the “% Inhibition” value is -11% and the Z score stood at 1.
Take `O=C(NCCc1cccnc1)N1CCCC[C@H](N2CCCC2)C1`: the “% Inhibition” value is 3% and the Z score is on record as -0.34.
As for `O=C(Nc1cc(Cl)ccc1Cl)[C@@H]1CCCN1C(=O)c1cccnc1`, the “% Inhibition” value turned out to be 14% and the Z score is -1.74.
With `CC1CCC(C(N)=O)CN1C(=O)CN1Cc2ccccc2C1` (stereo not drawn), the “% Inhibition” value is -9% and the Z score was found to be 1.71.
Consider `CC1CCCN(C(=O)CC2(CC(=O)N3CCCC(C)C3)CCCC2)C1` (stereo not drawn), for which the “% Inhibition” value is -7% and the Z score amounted to 0.94.
Taken in the same sequence, the figures for `Cn1cc(C(=O)C(=O)NCC2CCC2)cn1` were 29% and -3.94.
In the same order, the values of `O=C(N[C@H]1CN(C(=O)C2CCC2)C[C@@H]1C1CC1)c1ccnc(-n2cnnc2)c1` are 1% and -0.29.
On to `Cc1csc(CCCNC(=O)NC[C@H](O)c2ccccc2C)n1`, for which the “% Inhibition” value was -5% and the Z score is reported as 0.5.
For the molecule `CC(C)(C)c1nc(Cn2c3c(sc2=O)CCCC3)no1`, the “% Inhibition” value is 38% and the Z score is -4.34.
In the case of `Cc1cccc(-n2nc(CC(N)=O)nc2-c2cnc(C3CC3)nc2C)c1C`, the “% Inhibition” value was -13% and the Z score was determined as 1.3.
Take `CCN(c1ccc(C(=O)Nc2ccccc2C(=O)N2CCCCC2)cc1)S(C)(=O)=O`: the “% Inhibition” value is recorded as -14% and the Z score came to 2.1.
With `Cc1ccc(CCC(=O)NC[C@H](c2ccnn2C)C(C)C)c(C)c1`, the “% Inhibition” value was -3% and the Z score came to 0.33.
As to `Cc1ccc(-c2nocc2CCC(=O)NCC2CC2)cc1`, the “% Inhibition” value is given as -7% and the Z score is on record as 0.98.
Taken in the same sequence, the figures for `CCc1nsc(N2CCC3(CC2)CNC(=O)c2ccccc2O3)n1` were 0% and 0.
`O=C(c1c[nH]c(=O)[nH]1)N1CCN(Cc2ccc3ccccc3n2)CC1`: the “% Inhibition” value stood at 2% and the Z score is given as -0.32.
Regarding `O=C(NCc1ccoc1)c1ccn(CC(F)F)n1`, the “% Inhibition” value is reported as -14% and the Z score was 1.81.
In the same order, the values of `CC(C)c1nsc(N[C@H]2CCS(=O)(=O)C3(CCC3)C2)n1` are -18% and 1.84.
On to `CCc1cnc(N)nc1NCc1ccc2cc[nH]c2c1`, for which the “% Inhibition” value is reported as -13% and the Z score was 1.82.
As to `Cc1ccc(C(=O)NCC(=O)Nc2nc3cc4c(cc3s2)OCCO4)cc1`, the “% Inhibition” value is -7% and the Z score amounted to 1.25.
For `C[C@H]1c2cccn2CCN1CC(=O)N(C)Cc1ccco1`, the “% Inhibition” value is recorded as -5% and the Z score is listed as 0.7.

Values taken from ChEMBL document CHEMBL4888484, “Replenishing the malaria drug discovery pipeline: Screening and hit evaluation of the MMV Hit Generation Library 1 (HGL1) against asexual blood stage Plasmodium falciparum ,using a nano luciferase reporter read-out” (2022).
